This is one part of the list. At the low end of the ranking the order means little.

This assay addresses GST-SBP-SLBP (stem-loop binding protein) (UniProt Q14493). The assay can be described thus: targeted RNA Bind-n-Seq.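 Further: DESeq read counts versus GST-SBP nonspecific binding control pulldown.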 The following applies: RBNS binding buffer: 25 mM Tris pH 7.5, 150 mM KCl, 3 mM MgCl2, 0.1% Tween, 0.5 mg/mL BSA, 1 mM DTT; 27 nM protein, 750 pM RNA pool; temperature not stated; high values mean tight binding.
Consider “GGUCACGUCUCAAUCAACUCAUCUUCCAGGGAAAACCCUGGCGUAUUCAACAGCUCGCAGUCAAG”, for which the binding signal (log2 fold change) is -0.0706.
On to “GGUCACGUCUCAAUCAACUCCAAAGAGGGGGGGAAAACCCCUUUACCCUCCGCAUCAACAGCUCGCAGUCAAG”, for which the binding signal (log2 fold change) was 0.352.
As for “GGUCACGUCUCAAUCAACUCAGUCUCAGGAGUUUUCUCCUGUUUUUUCAACAGCUCGCAGUCAAG”, the figure is -0.138; as for “GGUCACGUCUCAAUCAACUCAAUAGAGGGGGGGAAAACCCCUUUACCCUCCACCUCAACAGCUCGCAGUCAAG”, 0.349.
As for “GGUCACGUCUCAAUCAACUCUUUUUCCAGGGAAAACCCUGGCAUAUUCAACAGCUCGCAGUCAAG”, the figure is -0.0627; as for “GGUCACGUCUCAAUCAACUCUUUUUCCAGGGAAACCCCUGGCAUUUUCAACAGCUCGCAGUCAAG”, 0.101.
As for “GGUCACGUCUCAAUCAACUCCAAAGAGGGGGGGAAAACCCCUUUACCCUCAAAAUCAACAGCUCGCAGUCAAG”, the binding signal (log2 fold change) is 0.0192.
Take “GGUCACGUCUCAAUCAACUCUCUCGAGGGGGGGAAAACCCCUUUACCCUCAAUAUCAACAGCUCGCAGUCAAG”: the binding signal (log2 fold change) is -0.0498.
With “GGUCACGUCUCAAUCAACUCUAUUUCAGGAGUUUUCUCCUGCUUUUUCAACAGCUCGCAGUCAAG” the figure was 0.196.
Consider “GGUCACGUCUCAAUCAACUCAAACGAGGGGGGGAAAACCCCUUUGCCCUCAUCUUCAACAGCUCGCAGUCAAG”, for which the binding signal (log2 fold change) amounted to 0.58.
Turning to “GGUCACGUCUCAAUCAACUCAUGUCCAGGAGUUUCCUCCUGUUUUUUCAACAGCUCGCAGUCAAG”, the binding signal (log2 fold change) is -0.109.
Consider “GGUCACGUCUCAAUCAACUCAACUCCCAGGGAAAUCCCUGGCAUACUCAACAGCUCGCAGUCAAG”, for which the binding signal (log2 fold change) was 0.145.
For the sequence “GGUCACGUCUCAAUCAACUCCAUAGAGGGGGGGAAAACCCCUUUGCCCUCAUCCUCAACAGCUCGCAGUCAAG”, the binding signal (log2 fold change) is -0.0941.
In the case of “GGUCACGUCUCAAUCAACUCUUUUUCCAGGGAAAACCCUGGCAUUUUCAACAGCUCGCAGUCAAG”, the binding signal (log2 fold change) was determined as 0.0735.
With “GGUCACGUCUCAAUCAACUCUAAAGAGGGGGGGAAAACCCCUUUGCCCUCAAUGUCAACAGCUCGCAGUCAAG” the figure was 0.175; with “GGUCACGUCUCAAUCAACUCAAGUCCCAGGGAAAGCCCUGGCAAUCUCAACAGCUCGCAGUCAAG”, -0.304.
Take “GGUCACGUCUCAAUCAACUCUAAAGAGGGGGGGAAAACCCCUUUGCCCUCACCAUCAACAGCUCGCAGUCAAG”: the binding signal (log2 fold change) turned out to be 0.0504.
With “GGUCACGUCUCAAUCAACUCAACUCCCAGGGAAACCCCUGGCAAUUUCAACAGCUCGCAGUCAAG” the figure was -0.264.
With “GGUCACGUCUCAAUCAACUCAUCCCCCAGGGAAACCCCUGGCAAAUUCAACAGCUCGCAGUCAAG”, the binding signal (log2 fold change) was -0.0865.
As for “GGUCACGUCUCAAUCAACUCAUUUUCAGGAGUUUGCUCCUGUAGUCUCAACAGCUCGCAGUCAAG”, the figure is 0.132.
Take “GGUCACGUCUCAAUCAACUCUUUCGAGGGGGGGAAAACCCCUUUACCCUCCACAUCAACAGCUCGCAGUCAAG”: the binding signal (log2 fold change) came out at 0.08.
“GGUCACGUCUCAAUCAACUCUAACGAGGGGGGGAAAACCCCUUUGCCCUCACAAUCAACAGCUCGCAGUCAAG”: the binding signal (log2 fold change) came out at 0.18.
On to “GGUCACGUCUCAAUCAACUCAUUUUCCAGGGAAAUCCCUGGCAUACUCAACAGCUCGCAGUCAAG”, for which the binding signal (log2 fold change) is 0.115.
On to “GGUCACGUCUCAAUCAACUCAUCGCCAGGAGUUUCCUCCUGUUUUUUCAACAGCUCGCAGUCAAG”, for which the binding signal (log2 fold change) was -0.109.
Take “GGUCACGUCUCAAUCAACUCUUCGUCCAGGGAAAACCCUGGCAUAUUCAACAGCUCGCAGUCAAG”: the binding signal (log2 fold change) is -0.0982.
With “GGUCACGUCUCAAUCAACUCUUCGUCAGGAGUUUCCUCCUGCUAAUUCAACAGCUCGCAGUCAAG” the figure was 0.165.
With “GGUCACGUCUCAAUCAACUCAAACGAGGGGGGGAAAACCCCUUUACCCUCAAAAUCAACAGCUCGCAGUCAAG”, the binding signal (log2 fold change) was found to be 0.127.
In the case of “GGUCACGUCUCAAUCAACUCAUCUCCCAGGGAAAACCCUGGUUAUUUCAACAGCUCGCAGUCAAG”, the binding signal (log2 fold change) was -0.0205.
For “GGUCACGUCUCAAUCAACUCUAUCUCAGGAGUUUCCUCCUGUUAACUCAACAGCUCGCAGUCAAG”, the binding signal (log2 fold change) stood at 0.164.
With “GGUCACGUCUCAAUCAACUCAUCUUCAGGAGUUUUCUCCUGCAUAUUCAACAGCUCGCAGUCAAG” the figure was 0.12.
With “GGUCACGUCUCAAUCAACUCAACUUCAGGAGUUUGCUCCUGCUAUUUCAACAGCUCGCAGUCAAG” the figure was -0.163; with “GGUCACGUCUCAAUCAACUCUACUUCAGGAGUUUACUCCUGUUUUCUCAACAGCUCGCAGUCAAG”, 0.103; with “GGUCACGUCUCAAUCAACUCUAUCUCCAGGGAAACCCCUGGUAUUUUCAACAGCUCGCAGUCAAG”, -0.0705.
With “GGUCACGUCUCAAUCAACUCUUCCUCCAGGGAAACCCCUGGUAUACUCAACAGCUCGCAGUCAAG” the figure was -0.19; with “GGUCACGUCUCAAUCAACUCAAAAGAGGGGGGGAAAACCCCUUUGCCCUCAGAAUCAACAGCUCGCAGUCAAG”, -0.195.
“GGUCACGUCUCAAUCAACUCUUAAGAGGGGGGGAAAACCCCUUUGCCCUCAAACUCAACAGCUCGCAGUCAAG”: the binding signal (log2 fold change) was -0.611.
Consider “GGUCACGUCUCAAUCAACUCAUUCGCCAGGGAAACCCCUGGGUAUUUCAACAGCUCGCAGUCAAG”, for which the binding signal (log2 fold change) amounted to 0.329.
As for “GGUCACGUCUCAAUCAACUCUUCCCCAGGAGUUUCCUCCUGCAUUCUCAACAGCUCGCAGUCAAG”, the figure is 0.135.
“GGUCACGUCUCAAUCAACUCAUCUCCAGGAGUUUCCUCCUGUUUUUUCAACAGCUCGCAGUCAAG”: the binding signal (log2 fold change) was -0.0493.
As for “GGUCACGUCUCAAUCAACUCUUUUCCCAGGGAAAUCCCUGGCAUUCUCAACAGCUCGCAGUCAAG”, the figure is -0.0288.
For “GGUCACGUCUCAAUCAACUCUUUCCCCAGGGAAACCCCUGGUUAUUUCAACAGCUCGCAGUCAAG”, the binding signal (log2 fold change) amounted to 0.0768.
“GGUCACGUCUCAAUCAACUCUUCGGCAGGAGUUUUCUCCUGGAUAUUCAACAGCUCGCAGUCAAG”: the binding signal (log2 fold change) is -0.0153.
In the case of “GGUCACGUCUCAAUCAACUCUACUCCCAGGGAAAACCCUGGCAUAUUCAACAGCUCGCAGUCAAG”, the binding signal (log2 fold change) is -0.212.
For the sequence “GGUCACGUCUCAAUCAACUCUCACGAGGGGGGGAAAACCCCUUUACCCUCAAAUUCAACAGCUCGCAGUCAAG”, the binding signal (log2 fold change) amounted to 0.315.
For the sequence “GGUCACGUCUCAAUCAACUCUUCCUCAGGAGUUUCCUCCUGUUUAUUCAACAGCUCGCAGUCAAG”, the binding signal (log2 fold change) came to 0.173.
As to “GGUCACGUCUCAAUCAACUCUUCCCCAGGAGUUUUCUCCUGUAAACUCAACAGCUCGCAGUCAAG”, the binding signal (log2 fold change) worked out at 0.0123.
For the sequence “GGUCACGUCUCAAUCAACUCAAUCUCCAGGGAAACCCCUGGUAAAUUCAACAGCUCGCAGUCAAG”, the binding signal (log2 fold change) came to 0.0185.
With “GGUCACGUCUCAAUCAACUCAUAAGAGGGGGGGAAAACCCCUUUGCCCUCAAAUUCAACAGCUCGCAGUCAAG”, the binding signal (log2 fold change) amounted to 0.148.
Regarding “GGUCACGUCUCAAUCAACUCAUUUUCAGGAGUUUCCUCCUGCAAACUCAACAGCUCGCAGUCAAG”, the binding signal (log2 fold change) is 0.102.
“GGUCACGUCUCAAUCAACUCAUUCCCCAGGGAAACCCCUGGCUUACUCAACAGCUCGCAGUCAAG”: the binding signal (log2 fold change) worked out at 0.0406.
Turning to “GGUCACGUCUCAAUCAACUCUUCCCCAGGAGUUUUCUCCUGUAUAUUCAACAGCUCGCAGUCAAG”, the binding signal (log2 fold change) was -0.063.
On to “GGUCACGUCUCAAUCAACUCAUCGUCAGGAGUUUUCUCCUGUUUUCUCAACAGCUCGCAGUCAAG”, for which the binding signal (log2 fold change) turned out to be 0.0337.
On to “GGUCACGUCUCAAUCAACUCAAGUCCAGGAGUUUUCUCCUGCUUUCUCAACAGCUCGCAGUCAAG”, for which the binding signal (log2 fold change) is -0.018.
As for “GGUCACGUCUCAAUCAACUCAUUCCCAGGAGUUUACUCCUGUAAUCUCAACAGCUCGCAGUCAAG”, the figure is -0.0627; as for “GGUCACGUCUCAAUCAACUCAACGCCAGGAGUUUUCUCCUGUUAAUUCAACAGCUCGCAGUCAAG”, -0.0352; as for “GGUCACGUCUCAAUCAACUCAUCUUCAGGAGUUUACUCCUGCUAUUUCAACAGCUCGCAGUCAAG”, 0.201.
With “GGUCACGUCUCAAUCAACUCAAUUUCAGGAGUUUGCUCCUGCAUAUUCAACAGCUCGCAGUCAAG” the figure was 0.0259; with “GGUCACGUCUCAAUCAACUCUUCUUCAGGAGUUUUCUCCUGUAAUUUCAACAGCUCGCAGUCAAG”, 0.0517; with “GGUCACGUCUCAAUCAACUCUAUCCCAGGAGUUUUCUCCUGCUUUCUCAACAGCUCGCAGUCAAG”, 0.173.
With “GGUCACGUCUCAAUCAACUCUUUAGAGGGGGGGAAAACCCCUUUGCCCUCAUCAUCAACAGCUCGCAGUCAAG” the figure was 0.173; with “GGUCACGUCUCAAUCAACUCUUUUUCAGGAGUUUCCUCCUGCUUAUUCAACAGCUCGCAGUCAAG”, 0.181; with “GGUCACGUCUCAAUCAACUCUACUCCAGGAGUUUUCUCCUGUUAAUUCAACAGCUCGCAGUCAAG”, 0.0273.
For “GGUCACGUCUCAAUCAACUCCUACGAGGGGGGGAAAACCCCUUUACCCUCAUUAUCAACAGCUCGCAGUCAAG”, the binding signal (log2 fold change) came out at 0.0802.
With “GGUCACGUCUCAAUCAACUCAUCGCCAGGAGUUUCCUCCUGUAUUUUCAACAGCUCGCAGUCAAG” the figure was -0.043; with “GGUCACGUCUCAAUCAACUCAUAAGAGGGGGGGAAAACCCCUUUGCCCUCAAUAUCAACAGCUCGCAGUCAAG”, 0.26; with “GGUCACGUCUCAAUCAACUCAACUCCAGGAGUUUACUCCUGUAUUCUCAACAGCUCGCAGUCAAG”, 0.247.
On to “GGUCACGUCUCAAUCAACUCAAUAGAGGGGGGGAAAACCCCUUUGCCCUCAAUCUCAACAGCUCGCAGUCAAG”, for which the binding signal (log2 fold change) stood at 0.451.
“GGUCACGUCUCAAUCAACUCAACUCCAGGAGUUUUCUCCUGUUAUUUCAACAGCUCGCAGUCAAG”: the binding signal (log2 fold change) is -0.0265.
As to “GGUCACGUCUCAAUCAACUCUUCCUCAGGAGUUUCCUCCUGCAAUUUCAACAGCUCGCAGUCAAG”, the binding signal (log2 fold change) was -0.0496.
For the sequence “GGUCACGUCUCAAUCAACUCAUCUGAGGGGGGGAAAACCCCUUUACCCUCCACAUCAACAGCUCGCAGUCAAG”, the binding signal (log2 fold change) is -0.277.
With “GGUCACGUCUCAAUCAACUCUCAAGAGGGGGGGAAAACCCCUUUACCCUCGUUCUCAACAGCUCGCAGUCAAG” the figure was -0.189; with “GGUCACGUCUCAAUCAACUCAUCUCCCAGGGAAAACCCUGGCUUUUUCAACAGCUCGCAGUCAAG”, -0.106; with “GGUCACGUCUCAAUCAACUCAUCUCCCAGGGAAAACCCUGGCAUACUCAACAGCUCGCAGUCAAG”, 0.00656.
As for “GGUCACGUCUCAAUCAACUCAUUCCCAGGAGUUUACUCCUGUUAACUCAACAGCUCGCAGUCAAG”, the binding signal (log2 fold change) was 0.107.
